In assay [1] the target is CENP-A-GFP-LacI (in S2 cells) (Drosophila melanogaster) (UniProt Q9V6Q2). The experiment in a line: LacO/LacI tethering assay (recruitment seen by immunofluorescence); Drosophila Schneider S2 cells with a LacO array; GFP-LacI fusion tethered, recruitment of co-transfected tagged CAL1 measured at the LacO spot.
Assay [2] has as its target T1, GFP-LacI-CENP-C (in S2 cells) (Drosophila melanogaster) (UniProt Q9VHP9).
T1 sequence: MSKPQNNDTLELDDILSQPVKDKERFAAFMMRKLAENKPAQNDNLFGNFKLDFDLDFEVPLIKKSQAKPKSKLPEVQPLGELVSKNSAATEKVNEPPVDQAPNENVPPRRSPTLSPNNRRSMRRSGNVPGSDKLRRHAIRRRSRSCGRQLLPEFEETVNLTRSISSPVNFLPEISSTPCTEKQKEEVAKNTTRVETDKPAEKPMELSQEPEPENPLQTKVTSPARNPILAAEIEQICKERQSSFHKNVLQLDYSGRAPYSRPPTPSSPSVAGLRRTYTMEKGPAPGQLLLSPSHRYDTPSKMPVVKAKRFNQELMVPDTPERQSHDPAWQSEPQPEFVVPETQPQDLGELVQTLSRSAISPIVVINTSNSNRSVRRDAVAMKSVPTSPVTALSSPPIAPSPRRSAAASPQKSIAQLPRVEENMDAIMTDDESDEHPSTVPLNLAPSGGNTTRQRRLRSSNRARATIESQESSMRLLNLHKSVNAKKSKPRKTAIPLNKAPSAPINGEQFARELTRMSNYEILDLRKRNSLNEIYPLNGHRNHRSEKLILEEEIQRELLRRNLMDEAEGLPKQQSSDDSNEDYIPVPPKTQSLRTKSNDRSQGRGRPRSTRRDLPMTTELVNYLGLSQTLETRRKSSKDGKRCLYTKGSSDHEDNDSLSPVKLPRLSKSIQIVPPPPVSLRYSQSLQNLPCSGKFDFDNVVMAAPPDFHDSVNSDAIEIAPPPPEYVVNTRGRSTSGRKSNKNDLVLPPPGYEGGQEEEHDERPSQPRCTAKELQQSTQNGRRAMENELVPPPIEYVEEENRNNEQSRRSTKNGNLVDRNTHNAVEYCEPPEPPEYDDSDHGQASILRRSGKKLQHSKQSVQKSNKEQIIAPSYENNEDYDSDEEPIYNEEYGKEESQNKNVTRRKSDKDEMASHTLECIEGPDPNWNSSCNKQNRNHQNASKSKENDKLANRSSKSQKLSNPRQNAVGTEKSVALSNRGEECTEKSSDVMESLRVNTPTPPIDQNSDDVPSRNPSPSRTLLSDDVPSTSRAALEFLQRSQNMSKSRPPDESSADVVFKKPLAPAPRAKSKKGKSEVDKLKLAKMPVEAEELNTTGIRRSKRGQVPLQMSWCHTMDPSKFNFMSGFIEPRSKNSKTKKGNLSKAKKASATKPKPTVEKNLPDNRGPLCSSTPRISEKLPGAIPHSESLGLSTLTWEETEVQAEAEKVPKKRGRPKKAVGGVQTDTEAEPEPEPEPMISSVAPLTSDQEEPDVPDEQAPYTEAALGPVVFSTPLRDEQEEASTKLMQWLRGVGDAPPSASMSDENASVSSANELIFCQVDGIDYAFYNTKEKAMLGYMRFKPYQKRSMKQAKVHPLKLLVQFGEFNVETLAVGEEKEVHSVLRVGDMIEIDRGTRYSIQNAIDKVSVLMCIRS
Described as above.

By UniProt entry, the sequences of proteins in these tests, tags left out. Where a name states a change or a piece, a line headed by the entry shows the natural chain unless it says otherwise. Chains listed by the source or under a name are the forms on record and can include a tag or linker.
UniProt Q9V6Q2: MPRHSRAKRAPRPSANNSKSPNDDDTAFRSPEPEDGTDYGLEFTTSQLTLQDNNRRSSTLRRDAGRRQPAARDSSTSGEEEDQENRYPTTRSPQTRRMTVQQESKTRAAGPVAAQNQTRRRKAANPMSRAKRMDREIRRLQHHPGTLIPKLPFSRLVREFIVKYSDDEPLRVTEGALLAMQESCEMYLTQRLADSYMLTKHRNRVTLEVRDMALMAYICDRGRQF
UniProt Q9VEN2: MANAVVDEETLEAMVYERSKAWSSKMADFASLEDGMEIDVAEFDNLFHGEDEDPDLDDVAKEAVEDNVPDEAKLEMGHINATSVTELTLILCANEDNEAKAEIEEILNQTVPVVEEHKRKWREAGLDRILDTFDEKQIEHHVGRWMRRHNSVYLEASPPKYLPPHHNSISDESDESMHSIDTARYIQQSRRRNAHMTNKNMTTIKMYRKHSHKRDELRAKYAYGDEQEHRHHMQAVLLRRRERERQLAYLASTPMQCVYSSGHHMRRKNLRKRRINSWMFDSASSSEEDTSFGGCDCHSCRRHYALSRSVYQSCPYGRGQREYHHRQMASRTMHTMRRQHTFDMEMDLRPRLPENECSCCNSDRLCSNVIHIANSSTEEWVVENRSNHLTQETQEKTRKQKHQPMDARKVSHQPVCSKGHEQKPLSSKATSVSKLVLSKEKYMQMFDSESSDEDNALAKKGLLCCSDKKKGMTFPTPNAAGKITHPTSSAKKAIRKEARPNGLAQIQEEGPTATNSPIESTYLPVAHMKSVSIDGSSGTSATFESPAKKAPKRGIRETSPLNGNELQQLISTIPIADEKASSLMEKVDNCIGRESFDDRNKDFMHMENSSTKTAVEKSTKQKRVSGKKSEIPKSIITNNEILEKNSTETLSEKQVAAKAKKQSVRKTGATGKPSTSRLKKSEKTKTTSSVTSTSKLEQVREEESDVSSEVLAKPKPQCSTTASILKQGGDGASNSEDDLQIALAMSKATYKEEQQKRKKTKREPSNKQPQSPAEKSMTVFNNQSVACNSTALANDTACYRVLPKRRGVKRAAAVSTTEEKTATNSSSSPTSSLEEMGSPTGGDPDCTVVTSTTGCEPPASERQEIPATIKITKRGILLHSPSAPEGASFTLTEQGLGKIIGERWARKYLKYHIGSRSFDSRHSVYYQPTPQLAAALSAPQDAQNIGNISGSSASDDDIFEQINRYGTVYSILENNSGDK
His-SUMO-CAL1(841-979 I900R/K907A/Y908A) (Q9VEN2, form named): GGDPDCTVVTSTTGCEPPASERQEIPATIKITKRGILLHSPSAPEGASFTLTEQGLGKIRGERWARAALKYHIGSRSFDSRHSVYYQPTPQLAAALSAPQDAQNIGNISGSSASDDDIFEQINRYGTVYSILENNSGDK

Assay [3] concerns the target CAL1(841-979) (Drosophila melanogaster) (UniProt Q9VEN2). Briefly: AUC; sedimentation velocity (49 k rpm) and sedimentation equilibrium (26 k rpm), 4°C; untagged proteins and SEC purified untagged complex; a range of concentrations, up to 10 mg/ml; both purified.
Assay [4] has as its target T2, GFP-LacI-CENP-C (in U2OS cells) (Drosophila melanogaster) (UniProt Q9VHP9).
T2 sequence: T1 sequence
The experiment in a line: LacO/LacI tethering assay (recruitment seen by immunofluorescence); human U2OS cells with a LacO array; GFP-LacI fusion tethered, recruitment of co-transfected CAL1-V5 measured at the LacO spot.

The target in assay [5] is CENP-A-GFP-LacI (in U2OS cells) (Drosophila melanogaster) (UniProt Q9V6Q2). Described as above.
Assay [6] concerns the target T3, His-CENP-C(1264-1411) (Drosophila melanogaster) (UniProt Q9VHP9).
T3 sequence: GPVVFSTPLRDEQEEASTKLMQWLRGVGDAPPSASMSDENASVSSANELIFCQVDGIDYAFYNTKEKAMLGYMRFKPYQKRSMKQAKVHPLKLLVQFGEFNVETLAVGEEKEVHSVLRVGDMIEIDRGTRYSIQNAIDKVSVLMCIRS
The experiment in a line: SEC; individually purified proteins mixed (CENP-C in molar excess); Superdex 75 or Superdex 75 increase 10/300, 20 mM Tris-HCl pH 8.0, 100 mM NaCl, 2 mM DTT; fractions on SDS-PAGE; both purified. In general terms: In gel filtration, larger molecules generally elute earlier.

The target of assay [7] is T4, His-CENP-C(1264-1411 L1357E/M1407E) (Drosophila melanogaster) (UniProt Q9VHP9).
T4 sequence: T3 sequence with L94E, M144E
Described as above.

Assay [8] addresses T5, His-CENP-C(1264-1411 F1324R) (Drosophila melanogaster) (UniProt Q9VHP9).
T5 sequence: T3 sequence with F61R
The assay is described as above.

Substitutions are numbered along the chain they refer to. Results are given in words; binding and its absence hold for the method and conditions named. Some entries that bind do so weakly or less than the wild type. For some assays here: Sequences can lack the tags named with a protein.

“CAL1(F43R)-V5 (in S2 cells) (from UniProt Q9VEN2 1-979)”: in assay [1], the binding entry is “binds”.

On to “CAL1-HA (in S2 cells) (from UniProt Q9VEN2 1-979)”, for which the binding entry in assay [2] was “binds”.

Turning to “CAL1(841-979) (from UniProt Q9VEN2 841-979) (domain or fragment)”, the binding entry in assay [3] was “no binding”.

For the substance “CAL1-V5 (in U2OS cells) (from UniProt Q9VEN2 1-979)”, the binding entry in assay [4] and in assay [5] was “binds” in each case.

Take “His-SUMO-CAL1(841-979 I900R/K907A/Y908A) (from UniProt Q9VEN2 841-979) (domain or fragment)”: the binding entry in assay [6] is listed as “no binding”.

On to “His-SUMO-CAL1(841-979) (from UniProt Q9VEN2 841-979) (domain or fragment)”, for which the binding entry in assay [7] and in assay [8] was “no binding” in each case.

Values taken from article PMC7110144.
